Data reported in the supplement of paper PMC3334620.
Whole data set: some 33,000 sequences, median “E-score (-0.5 to 0.5)” near -0.035, cut for the highest 2% near 0.34. This is one part of the list.

Target: T1, Mot3 (UniProt P54785)
T1 sequence: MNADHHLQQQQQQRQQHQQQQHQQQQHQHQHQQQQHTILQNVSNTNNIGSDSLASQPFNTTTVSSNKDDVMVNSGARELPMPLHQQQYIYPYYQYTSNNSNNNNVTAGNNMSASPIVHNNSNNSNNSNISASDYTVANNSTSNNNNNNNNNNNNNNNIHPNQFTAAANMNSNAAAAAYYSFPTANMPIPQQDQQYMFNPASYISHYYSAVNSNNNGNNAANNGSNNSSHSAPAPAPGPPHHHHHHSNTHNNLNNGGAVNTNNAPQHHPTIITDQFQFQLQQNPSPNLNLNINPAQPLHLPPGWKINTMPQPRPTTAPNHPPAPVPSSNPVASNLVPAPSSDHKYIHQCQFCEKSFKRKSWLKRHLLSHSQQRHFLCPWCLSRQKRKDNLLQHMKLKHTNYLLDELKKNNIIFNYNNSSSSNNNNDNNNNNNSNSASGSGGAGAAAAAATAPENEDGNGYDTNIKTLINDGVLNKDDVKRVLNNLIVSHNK
Assay: PBM E-score (8-mer binding enrichment) (E-score (-0.5 to 0.5)); higher = stronger / more preferred TF binding; most listed sequences are background and not binding sites
Conditions: protein concentration: 200 nM; construct: GST-full length
Outline: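 Universal all-10-mer Agilent arrays, double-stranded by primer extension on fresh or once-stripped slides, were probed with about 100-200 nM GST-tagged yeast transcription factors made by PURExpress. Fluorescent anti-GST detected bound protein, and masliner normalised the scans. E-scores from the Universal PBM Analysis Suite were given to each ungapped eight-base word pooled with its reverse complement.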

Row | Sequence | PBM E-score
1 | ATAAGTTA | 0.213
2 | AGGGTCAA | -0.0327
3 | CCAGCAGC | -0.282
4 | CAGCTATA | -0.00597
5 | CCGTGTAG | 0.367
6 | GCGTAAGC | -0.0393
7 | ATGCATAG | 0.0955
8 | CGCTAAGA | -0.031
9 | CAACCATA | -0.0844
10 | CTCAGTCC | -0.14
11 | CGCGTGCA | 0.0183
12 | CGAATCAA | 0.0349
13 | ATGATAAC | 0.0727
14 | GGCTTCCA | -0.216
15 | ACAACGTC | 0.0585
16 | AGGTATGA | -0.0139
17 | ATGCAACG | 0.0891
18 | GACGGTAC | -0.116
19 | ATCACATA | 0.224
20 | CACCATGA | -0.135
21 | CAGATCTA | 0.0604
22 | CGCCCCTC | -0.0863
23 | CACGGGTC | -0.0344
24 | GGATTCCA | -0.0253
25 | GATGAGCC | -0.0834

Row | Sequence | PBM E-score
26 | AACGACAA | 0.17
27 | AAATGATG | -0.00115
28 | CCCTAGCG | -0.215
29 | GACGGAGC | -0.277
30 | ACAATCAA | 0.183
31 | CCGTTATC | -0.169
32 | AGCGAAGG | 0.0157
33 | CTCCCTAA | -0.0538
34 | AATGCTCA | -0.108
35 | AGATTATC | -0.148
36 | CACATTCG | 0.149
37 | ATTACCGA | 0.123
38 | AGTCCACG | -0.213
39 | ATCGGTGA | -0.0352
40 | ACTGATCA | -0.0193
41 | AATTGCTC | -0.194
42 | CGCGAACA | 0.0614
43 | ATGACCGC | -0.169
44 | CTTTCCGA | -0.229
45 | AGACGCTG | -0.123
46 | GGGTGTTA | 0.148
47 | CATCGCAG | -0.143
48 | GCCGTCCA | -0.0498
49 | GCCCGAAA | -0.0818
50 | ATAGATTA | 0.14

Row | Sequence | PBM E-score
51 | CCGCTTTA | 0.117
52 | ATCACTAG | -0.0297
53 | GGTACACC | 0.0315
54 | AATAGAAT | 0.0328
55 | CACTGGTA | -0.00383
56 | CCATCGTC | -0.216
57 | GAGTCCAA | -0.0571
58 | GTACGCAC | 0.105
59 | CACCGGTA | -0.126
60 | TATTCGAA | 0.00743
61 | CAGCTGTA | -0.0189
62 | GTCAACAC | 0.257
63 | ACGGCTCG | -0.0967
64 | CAGAAAAC | 0.152
65 | CTAGTCCC | -0.107
66 | AATGTACT | 0.152
67 | TGACGGCA | -0.155
68 | CAACAGAC | 0.0837
69 | AATTGCCC | 0.0147
70 | CTGACTTA | -0.104
71 | ACTTCTCT | -0.028
72 | ATAGAGCG | -0.11
73 | CTTGAGTC | -0.021
74 | ATGGTGCA | 0.0251
75 | ACTGTCAA | -0.121

Row | Sequence | PBM E-score
76 | CTTACATC | 0.163
77 | GAGACGGA | -0.171
78 | TACCGTGA | -0.13
79 | ACCGGTCA | -0.146
80 | ATCGCCCG | -0.138
81 | CCAGAACG | -0.0663
82 | AGCAGGCT | 0.0328
83 | AAAGGAAT | -0.0306
84 | AGCTGGCC | -0.14
85 | GATAGGGC | -0.166
86 | GCGATTTA | -0.11
87 | GAATCTAA | -0.0012
88 | CATCCTAC | -0.232
89 | AGCCACTG | -0.141
90 | CCCCCGAA | -0.0659
91 | CTAAGGAG | -0.254
92 | CCCGTATC | -0.222
93 | TAGTCACA | 0.0757
94 | GCCGGAAA | -0.248
95 | GGTTGCAC | 0.0242
96 | GAGCCTCA | -0.282
97 | ACGGCTAT | -0.0851
98 | CCGTTGTC | -0.0341
99 | AAAATTGG | -0.129
100 | GGGCTCGA | -0.0689

Row | Sequence | PBM E-score
101 | AACACAGA | 0.264
102 | CTGGTTGC | 0.0984
103 | GAATTAAC | 0.191
104 | CAGTAGAC | -0.0682
105 | GGTGGTTA | -0.177
106 | CACGGCGC | 0.0639
107 | GGTGGAAA | -0.331
108 | GTGCCTCA | 0.454
109 | GTCCTTTA | 0.0332
110 | ACCTCGTC | -0.155
111 | GGCGGGAC | -0.296
112 | CGCGCCAG | -0.0635
113 | CACAAAGA | 0.11
114 | GGCTTCGA | -0.0492
115 | GATTCCAC | 0.00725
116 | AGGACCAC | -0.0621
117 | ACGTAGAT | 0.269
118 | GTCGCAAC | -0.0124
119 | CTAACATA | 0.156
120 | AAAGATTC | 0.126
121 | AAGGTGAC | -0.0236
122 | GGATAATA | -0.0236
123 | CTCTGTTC | 0.0419
124 | CTAGAAAA | 0.118
125 | ATGAGCTC | -0.0741

Row | Sequence | PBM E-score
126 | CAATACTC | 0.0636
127 | CGATGGGC | -0.19
128 | CACGCGGC | -0.0308
129 | AAGGACAC | 2e-05
130 | ACTGTCGC | -0.125
131 | GGTAAAAA | 0.267
132 | GCTAAAGA | 0.0361
133 | TATCCAAA | 0.0455
134 | TCTGATAA | -0.158
135 | CATACAGC | -0.19
136 | CCCAAGCA | -0.0646
137 | GAAGCTCC | -0.266
138 | GGGAGCAA | -0.134
139 | GCCACGGC | -0.164
140 | AGTCGTAA | 0.0638
141 | GCTCCAGC | -0.154
142 | CTCTTGTA | 0.239
143 | CCTCTCTA | -0.195
144 | GGCACGGA | 0.397
145 | GACGCTTA | -0.0493
146 | CTCCATAC | -0.122
147 | ACACTAGG | -0.00897
148 | GGGTACAC | 0.0896
149 | AAAACCAC | 0.0758
150 | GCGCGTGA | 0.0773

Row | Sequence | PBM E-score
151 | AACACCCC | -0.141
152 | GCTTTGCA | -0.0184
153 | CTGGCGCA | -0.218
154 | CTTACGGC | -0.206
155 | AAACCGGA | -0.134
156 | CCGTCCTC | -0.274
157 | AACCTTTA | 0.0683
158 | GACACAGC | 0.118
159 | CCCCCGCC | -0.304
160 | AGAGTTAT | -0.184
161 | GACGAGTA | 0.0318
162 | CTTTTAGA | -0.165
163 | CCAAGTAA | 0.178
164 | GTGCCCAC | 0.276
165 | ATAACCTC | -0.0664
166 | CAGTGTAG | 0.154
167 | ATAGTATG | 0.0342
168 | AGGGTGGA | -0.338
169 | ACTTACGA | 0.166
170 | CCCTGGCA | -0.191
171 | TAGGAGGA | -0.00925
172 | ACCTCAAA | -0.0738
